Measured values from article PMC9574860, “Chemical Toolkit for PARK7: Potent, Selective, and High-Throughput” (Journal of Medicinal Chemistry, 2022).
Screen size: about 7,900 compounds; about 400 (5.1%) showed an effect of 50% or more. This is one part of the list.

The compounds below were run against Parkinson's disease protein 7 (PARK7/DJ1) (human, UniProt Q99497) (assay: primary screen, percent inhibition; read as competition with a fluorescent probe by fluorescence polarization; higher = more effect of the substance). Conditions: 100 µM.
Parkinson's disease protein 7 (PARK7/DJ1), sequence (Q99497 whole entry, looked up, the tested form may be a part): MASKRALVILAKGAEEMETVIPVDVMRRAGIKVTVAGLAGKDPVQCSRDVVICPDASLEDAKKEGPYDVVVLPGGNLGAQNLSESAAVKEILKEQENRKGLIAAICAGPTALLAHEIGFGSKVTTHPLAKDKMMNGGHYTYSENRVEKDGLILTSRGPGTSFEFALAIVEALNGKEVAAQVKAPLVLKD
Method in brief: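 Fluorescence-polarization probe displacement (JYQ-107, 20 nM final, 2 h) after 2 h preincubation of PARK7 (0.2 μM final) with each fragment at 100 μM final. Read-out ex/em 480/520 nm; remaining activity derived from FP signal loss relative to reference controls.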

Row | SMILES | Inhibition % [%]
1 | C=CC(=O)N1c2ccccc2CCC1C (stereo not drawn) | 6.12
2 | O=C(CCl)Nc1ccc2c(c1)OCCO2 | 55
3 | Cc1nn(C)c2ncc(C=C(C#N)C(=O)NC(C)C)cc12 | 7.67
4 | O=C(CCl)NCCc1ccc(F)cc1 | 26.6
5 | Cc1ccc(NC(=O)C(C#N)=Cc2cn(C)cn2)c(C)c1 | 10.3
6 | O=C1CCC(=O)N1CCN1CCCc2cc(F)ccc21 | 14.5
7 | CCN(C(=O)Cn1cnc(C#N)n1)C1=CCCC1 | 5.92
8 | Cc1ccc2[nH]c(SC3CC(C)OC3=O)nc2c1 (stereo not drawn) | 17.4
9 | NC(=O)c1ccsc1NC(=O)CCCl | 9.06
10 | N#CC=C1NC(=O)c2ccccc2S1 | 28.7
11 | Cn1cc(C=C(C#N)C(=O)O)cn1 | 5.91
12 | C=CC(=O)N1CCN(CC(F)(F)F)C(C)C1 (stereo not drawn) | 11.9
13 | C=CC(=O)N1CCC(=O)N(C)c2ccccc21 | 1.46
14 | C=CC(=O)N1CCc2c(ncn(CC)c2=O)C1 | 28
15 | Cc1csc(C2CN(C3CC(C)OC3=O)CCO2)n1 (stereo not drawn) | 6.49
16 | CC(CCS(C)(=O)=O)NC(=O)c1cccnc1S (stereo not drawn) | 4.52
17 | CC1CCC2(CC1)CO2 (stereo not drawn) | 10.7
18 | CC1N=C(S)N(C2CC2)C1=O (stereo not drawn) | 3.34
19 | CC(C)(C)n1nccc1B1OC(C)(C)C(C)(C)O1 | 6.06
20 | O=C(CCl)Nc1cccc(N2CCCC2=O)c1 | 15.3
21 | Cc1ccc(-c2nnc(S)[nH]c2=O)cc1 | 7.42
22 | N#CC(=Cc1ccsc1)C(=O)Nc1ccc(C(=O)O)cc1 | 20.7
23 | CS(=O)(=O)OC1CCOC(c2ccncc2)C1 (stereo not drawn) | 7.05
24 | O=C(CCCl)Nc1ccc2c(c1)CCC2 | 4.93
25 | O=C(Oc1ccc2c(c1)OCO2)N1CCCCC1 | 5.53
26 | N#Cc1nc(NCCS(=O)c2ccccc2)ccc1Cl (stereo not drawn) | 5.36

Row | SMILES | Inhibition % [%]
27 | CCOc1cc(C)c(C)cc1S(=O)(=O)n1ccc(C)n1 | 1.84
28 | Cl.O=C(O)C1CCN(C(=O)C=Cc2ccccc2Cl)C1 (stereo not drawn) | -0.748
29 | CC(C)Oc1cncc(B2OC(C)(C)C(C)(C)O2)c1 | 7.07
30 | C=CC(=O)N1c2ccc(Cl)cc2CC1C (stereo not drawn) | 13.3
31 | Cc1c(C=C2N=C3CCCCCN3C2=O)cc(C#N)n1C | 0.425
32 | N#Cc1cccc(N2CCCC(F)C2)n1 (stereo not drawn) | 14.3
33 | CC(C)(C)C(=O)NCc1ccc(C(=O)CCl)s1 | 76.2
34 | C=CC(=O)NCCc1csc(C)n1 | 6.55
35 | Cc1ccc(B2OC(C)(C)C(C)(C)O2)o1 | 8.79
36 | C=CC(=O)NCc1coc2ccccc12 | 7.72
37 | O=C(CCl)N1CCOC(c2ccc(F)cc2)C1 (stereo not drawn) | 95.3
38 | O=C(Oc1ccccc1)N1CC(O)C1 | 29
39 | O=S(=O)(F)Cc1ccc(Cl)nc1 | 20.4
40 | Cc1nc(C#N)c(NCc2cccnc2)o1 | 4.8
41 | Cc1ccc(C=C(C#N)S(C)(=O)=O)s1 | 6.48
42 | C=CC(=O)N1C2CCC1CC(CC(F)F)C2 (stereo not drawn) | 6.6
43 | CCN1C(=O)SC(Nc2ccc(C)cc2)C1=O (stereo not drawn) | 7.51
44 | COc1ccc(C)cc1S(=O)(=O)n1cccn1 | 2.32
45 | COc1ccc(C)cc1S(=O)(=O)n1cnc(C)c1 | 5.56
46 | C=CC(=O)NC[C@@H]1Cc2ccccc2CO1 | 4.89
47 | CC(Nc1ccc(C#N)nc1)C1CCCOC1 (stereo not drawn) | -0.898
48 | CCN(C(=O)c1cccc(B(O)O)c1)C1CCOC(C)(C)C1 (stereo not drawn) | 8.99
49 | O=C(c1ccccc1F)N1CCCCC1C1OCCO1 (stereo not drawn) | 3.89
50 | Cl.OB(O)c1cncc(-n2cccn2)c1 | 6.29
51 | O=S(=O)(C=Cc1ccccc1)Nc1ccsc1 | 4.95
52 | Cc1[nH]ncc1CCCNc1ccc(Cl)c(C#N)n1 | 0.425

Row | SMILES | Inhibition % [%]
53 | Cc1ccc(CN(C)C(=O)CCl)cc1 | 68.9
54 | C=CC(=O)N1CCCC(n2cc(C(=O)O)cn2)C1 (stereo not drawn) | 9.81
55 | CCn1c(S)nc2cc(C(=O)O)ccc2c1=O | 3.7
56 | CN1CC(=O)OB(c2ccc(O)cc2)OC(=O)C1 | 6.42
57 | COC(=O)c1cc(NC(=O)CCl)cn1C | 7.93
58 | CCCn1[nH]ccc1=NC(=O)CCl | 6.2
59 | O=S(=O)(F)CCN1CCOc2ccccc21 | 17.4
60 | O=C(CN1CCSC1=O)Nc1cc(Cl)ccc1Cl | 2.2
61 | C=CC(=O)N1CCCC(n2ccnc2)C1 (stereo not drawn) | 8.99
62 | C=CC(=O)Nc1ccc2nc(C3CC3)oc2c1 | 11.6
63 | O=C(CCl)NC1(c2ccccc2)CCC1 | 2.96
64 | Cc1ccc(NC(=O)CN2CCSC2=O)c(F)c1 | 2.2
65 | N#CC12CC3CC(CC(Cl)(C3)C1)C2 | 8.03
66 | C=CC(=O)N1CCOC[C@@H]1Cc1ccccc1 | 5.84
67 | C=CC(=O)NCCCC(=O)N1CCOc2ccccc21 | 11
68 | Fc1ccc(C2CO2)c(F)c1 (stereo not drawn) | 6.59
69 | CCS(=O)(=O)N1CCc2cc(C(=O)CCl)ccc21 | 11.9
70 | C=CC(=O)N1CCn2c(Cl)ccc2C1C (stereo not drawn) | 22.2
71 | O=C(CCl)Nc1nnn[nH]1 | 30.2
72 | Cc1cnn(C)c1B1OC(C)(C)C(C)(C)O1 | 3.95
73 | C=CC(=O)NCC1CCC=CO1 (stereo not drawn) | 6.04
74 | O=C(O)C1CN(C(=O)C=CC2CCCCC2)CCO1 (stereo not drawn) | 13.3
75 | Cc1cccc(NC(=O)CNC(=O)CCl)c1C | 7.15
76 | C=CC(=O)N1CCCC1c1ccccc1OC (stereo not drawn) | 6.29
77 | CCc1cc(CCCCl)on1 | 8.59
78 | CCNc1oc(-c2ccc(OC)cc2)nc1C#N | 4.05

Row | SMILES | Inhibition % [%]
79 | C=CC(=O)N1CCCCC1c1nc(C)cs1 (stereo not drawn) | 8.28
80 | CN(C(=O)CCl)C1(C#N)CCCCC1 | 31.2
81 | C=CC(=O)NC1(c2ccccc2)CCOCC1 | 9.29
82 | CC1(C)OB(c2cccc3c2CCO3)OC1(C)C | 9.99
83 | CN(C)c1ccc(C#N)nc1 | 6.01
84 | Cc1noc(C)c1CC(=O)N1CCCC(C2OCCO2)C1 (stereo not drawn) | -196
85 | CC(C)n1ncc(B2OC(C)(C)C(C)(C)O2)c1F | 7.53
86 | O=C(CCl)NCc1ccccc1F | 22.6
87 | O=S(=O)(F)c1ccc(S(=O)(=O)NC2CCCC2O)cc1 (stereo not drawn) | 16.5
88 | O=[N+]([O-])c1ccccc1S(=O)(=O)F | 99.1
89 | C=CC(=O)NCC1C[C@@H]2COC[C@@H]2O1 (mixture of isomers) | 9.67
90 | NCC1CCCCN1C(=O)C=Cc1ccccn1 (stereo not drawn) | 1.06
91 | N#CC1(NC(=O)CCl)CCCCCC1 | 15
92 | CC(C)[C@H]1OCC[C@@H]1CNC(=O)c1c[nH]c(C#N)c1 | 10
93 | CNC(=O)C(C#N)=Cc1ccc(F)cc1 | 2.3
94 | CC1(C)OB(c2ccc3ccsc3c2)OC1(C)C | 3.19
95 | C=CC(=O)N1CCC(CC(=O)N(C)C)CC1 | 7
96 | COc1ccc(F)cc1S(=O)(=O)n1ccc(C)n1 | 3.57
97 | O=C(CN1CCSC1=O)Nc1ccc(F)c(Cl)c1 | -0.873
98 | Nc1c(C(=O)CCl)c(=O)[nH]c(=O)n1Cc1ccccc1 | 10.6
99 | C=CC(=O)N1CCN(c2ccccc2)C(=O)C1 | 12.4
100 | CCc1ccc(B2OC(C)(C)C(C)(C)O2)n1C(=O)OC(C)(C)C | 5.89
101 | C=CC(=O)Nc1cccc(C2CCC(=O)N2)c1 (stereo not drawn) | 12.6
102 | Cc1ccccc1OS(=O)(=O)c1c(C)nn(C)c1Cl | 10.2
103 | O=C(O)c1ccc(N2C(=O)CCC2=O)cc1 | -3.2
104 | C=CC(=O)NC1Cc2ccccc2NC1=O (stereo not drawn) | 12.2

Row | SMILES | Inhibition % [%]
105 | O=C(Oc1ccc(-c2nnco2)cc1)N1CCOCC1 | 8.48
106 | C=CC(=O)N1CCN(c2ncnc3c2cnn3C)CC1 | 1.13
107 | N#Cc1[nH]ccc2nccc1-2 | 18.7
108 | C=CC(=O)NCC1CCCOC1 (stereo not drawn) | -1.16
109 | CC(=O)NCCc1ccc(C(=O)CCl)cc1 | 70.8
110 | Cc1ccccc1-n1nnnc1SC1CCOC1=O (stereo not drawn) | 5.57
111 | CCOc1c(Cl)cc(C=C(C#N)C(N)=O)cc1OC | 5.8
112 | O=C(NCC1CCC(O)C1)c1cc(B(O)O)ccc1F (stereo not drawn) | 1.49
113 | Cc1cccc(C)c1NC(=O)Cn1cnc(C#N)n1 | 6.38
114 | C=CC(=O)NCc1cccc(-n2cncn2)c1 | 10.3
115 | C=CC(=O)NC1(c2noc(C(F)F)n2)CCC1 | -3.62
116 | Cc1nc(C#N)c(N2CCN(c3cccc(Cl)c3)CC2)o1 | 7.87
117 | Cc1cc(SC2CC(C)OC2=O)nc(C)n1 (stereo not drawn) | 7.91
118 | CC1CCCN(C(=O)C=CC2CCOCC2)C1CN (stereo not drawn) | 3.25
119 | C=CC(=O)N1CCCC1c1ccnn1C (stereo not drawn) | 6.12
120 | C=CC(=O)N1CCSC2(CCC2)CC1 | 10.9
121 | Cc1ccc(NC2C=CS(=O)(=O)C2)cc1C (stereo not drawn) | 17.4
122 | C=CC(=O)NC(C)c1cnn(C)c1 (stereo not drawn) | 5.67
123 | O=C(CCCl)N1CCCCC1 | 4.37
124 | O=C(O)c1ccc(-c2nc(=O)o[nH]2)cc1 | 2.46
125 | O=C(CN1CCSC1=O)N1CCCC1 | 6.93
126 | O=C1NC(C2CC2)C12CCOCC2 (stereo not drawn) | 5.28
